Data on 66 molecules can be found in PubChem BioAssay AID1434 (Sanford-Burnham Center for Chemical Genomics, 2008).

This is one part of the list. The main result of the screen is listed elsewhere. These columns were measured beside it and carry no call. Compounds called inactive in the main read-out are mostly missing here.

This test concerns the target Runt-related transcription factor 1 (Homo sapiens) + Core-binding factor subunit beta (Homo sapiens) (UniProt Q01196+Q13951). Put plainly: inhibitors of RUNX1 Runt–CBFb-SMMHC binding, primary screen, biochemical, FRET, Cerulean-Runt, Venus-CBFb-SMMHC, uHTS (AID 1434).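 Note: 0% = DMSO wells and 100% = wells with excess untagged CBFb-SMMHC; inhibitors lower the FRET ratio by blocking Runt binding to CBFb-SMMHC.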 As to conditions: Cerulean-Runt/Venus-CBFb-SMMHC FRET ratio 530/480, 1 h; retest duplicate average; at 20 µM; stronger effect = higher value.
UniProt Q01196, sequence (Q01196 whole entry, looked up): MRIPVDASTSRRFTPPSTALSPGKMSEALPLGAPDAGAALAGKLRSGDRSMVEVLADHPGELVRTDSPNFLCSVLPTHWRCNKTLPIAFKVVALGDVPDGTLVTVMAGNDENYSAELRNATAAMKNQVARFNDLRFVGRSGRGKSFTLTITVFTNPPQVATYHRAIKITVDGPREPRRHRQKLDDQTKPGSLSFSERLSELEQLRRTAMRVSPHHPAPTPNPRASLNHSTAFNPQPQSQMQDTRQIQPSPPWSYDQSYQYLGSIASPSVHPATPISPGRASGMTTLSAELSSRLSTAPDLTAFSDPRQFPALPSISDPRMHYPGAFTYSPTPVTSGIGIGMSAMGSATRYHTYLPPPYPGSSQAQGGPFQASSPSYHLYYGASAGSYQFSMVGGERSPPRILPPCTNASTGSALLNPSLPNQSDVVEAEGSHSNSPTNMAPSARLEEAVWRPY
UniProt Q01196, sequence (Q13951 whole entry, looked up): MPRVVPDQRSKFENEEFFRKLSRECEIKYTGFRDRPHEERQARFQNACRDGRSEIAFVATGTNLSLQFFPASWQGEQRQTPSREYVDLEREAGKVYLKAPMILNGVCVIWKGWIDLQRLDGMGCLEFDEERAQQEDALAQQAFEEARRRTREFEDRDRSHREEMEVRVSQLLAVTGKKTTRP
Turning to `CCc1cc2c(C)cc(=O)oc2cc1OC(=O)C1CCCN1C(=O)OC(C)(C)C` (stereo unspecified), the inhibition – broadly, the change of the read-out against control, counted positive when it falls – was 82.7%. Under `N#Cc1c(N)n(CCNC(=O)c2ccccc2)c2nc3ccccc3nc12` stands 74.4%; under `Cc1ccc(S(=O)(=O)c2c(N)n(NC(=O)C3CC3)c3nc4ccccc4nc23)cc1`, 82.6%. Under `Cc1ccc(-c2c(C#N)c(N)n3c(nc4ccccc43)c2C#N)cc1` stands 137%.

As to `COc1ccc(N2C3=C(C(=O)CC(C)(C)C3)C(c3cnn(C)c3)C3=C2CC(C)(C)CC3=O)cc1`, the inhibition was 97.8%. Under `O=C(N/N=C/c1c(O)n(-c2ccccc2Cl)c(=O)c2ccccc12)c1cccnc1` stands 70.6%; under `COc1ccc(-c2ccc(CCC(=O)O)n2CC(C)C)cc1`, 93.7%.

As for `N#Cc1c2ccc(OCC(N)=O)cc2n2ccccc12`, the inhibition was 70.6%. Next, `CCOc1ccc(-n2c(N)c(C(=O)NCc3ccco3)c3nc4ccccc4nc32)cc1`: 104%; `NNc1nc2sc3c(c2c(=O)n1C1CCCCC1)CCN(Cc1ccccc1)C3`: 106%; `CC(NC(=O)OC(C)(C)C)C(=O)Oc1cc2oc(=O)cc(-c3ccccc3)c2cc1Cl` (stereo unspecified): 67.7%. `CCOc1ccc2nc(N3CCOCC3)nc(C)c2c1`: the inhibition worked out at 73.7%.

Take `CCNC(=O)/C(C#N)=C/c1c(N2CCOCC2)nc2ccccn2c1=O`: the inhibition turned out to be 71.5%. Next, `c1ccc2[nH]c(SN3CCOCC3)nc2c1`: 59.7%. Under `CC(C)(C)OC(=O)NCCC(=O)Oc1ccc2ccc(=O)oc2c1` stands 87.4%; under `O=c1oc2cc(O)ccc2c2c1CCCC2`, 112%. For the molecule `CCCN1C2CCCC1CC(NC(=S)Nc1ccc(OC)cc1)C2` (stereo unspecified), the inhibition was 77.8%. Next, `O=c1cc(CN2CCN(S(=O)(=O)c3ccc4c(c3)OCCO4)CC2)c2ccc(O)cc2o1`: 164%; `COc1ccc2nc3c(cc2c1)c(NC(=O)c1cccs1)nn3CC(C)C`: 116%; `CCCn1nc(NC(=O)C2CCCO2)c2cc3cccc(C)c3nc21` (stereo unspecified): 99.3%.

Turning to `CCc1c(C)c(C#N)c2nc3ccccc3n2c1NCc1ccccn1`, the inhibition amounted to 72.4%. Under `O=c1c(O)c(-c2cccs2)oc2ccc(Cl)cc12` stands 72.9%; under `CCOC(=O)c1c(NC(=O)C(C)Sc2cccc[n+]2[O-])sc2c1CCN(Cc1ccccc1)C2` (stereo unspecified), 76%. Next, `Cc1ccccc1Oc1nc2c(C)cccn2c(=O)c1/C=C(\C#N)C(=O)NC1CCS(=O)(=O)C1` (stereo unspecified): 113%. `CC1(C)Cc2c(sc3ncn4c(=S)[nH]nc4c23)CO1`: the inhibition was 56.1%. Consider `O=C(O)c1ccccc1-c1ccc(/C=C/c2cc(C(F)(F)F)[nH]c(=O)n2)o1`, for which the inhibition was 70.6%. Under `CCN1CCc2c(sc(N)c2C#N)C1` stands 112%; under `COc1ccc(CCNC2=C(Cl)C(=O)N(CCc3ccccc3)C2=O)cc1OC`, 72.9%; under `Cc1cccn2c(=O)c3cc(C(=O)NCC4CCCO4)c(=N)n(CCN4CCOCC4)c3nc12` (stereo unspecified), 124%. Under `O=Cc1cn(-c2ccccc2)nc1-c1cc2cc(O)ccc2oc1=O` stands 72.9%; under `CCN(CC)c1ccc2cc(C(=O)Nc3ccccn3)c(=O)oc2c1`, 71.5%; under `N#Cc1cc2c(=O)n3ccccc3nc2n(-c2ccccc2Cl)c1=O`, 70.6%. Under `Cc1c(O)ccc2c(CN3CCN(CCO)CC3)cc(=O)oc12` stands 71.5%; under `COc1ccc(Oc2nc3c(C)cccn3c(=O)c2/C=C(\C#N)C(N)=O)cc1`, 117%; under `Cc1ccc(-n2c(=O)c(C#N)cc3c(=O)n4ccccc4nc32)cc1`, 71.5%.

In the case of `CN1/C(=C\C(=O)c2cccs2)C(C)(C)c2ccccc21`, the inhibition was determined as 71.5%. Next, `NC(=O)c1c(NC(=O)C2COc3ccccc3O2)sc2c1CCN(Cc1ccccc1)C2` (stereo unspecified): 134%; `CCCCCCc1cc2cc(C(=O)Nc3cccc(OC)c3)c(=O)oc2cc1O`: 90.7%; `CCCn1nc(NC(=O)C2CCCO2)c2cc3cc(C)ccc3nc21` (stereo unspecified): 59.9%. Under `CCN(CC)c1ccc(/C=c2\sc3nc4ccccc4n3c2=O)c(O)c1` stands 70.6%.

Regarding `COc1ccccc1NC(=O)c1cc2ccc(O)cc2o/c1=N\O`, the inhibition is 152%. Next, `O=C(c1cc2c(=O)n3ccccc3nc2s1)N1CCc2ccccc2C1`: 86.3%; `Cc1ccc(S(=O)(=O)Nc2nc3ccccc3nc2Nc2cccc(S(=O)(=O)N3CCCC3)c2)cc1`: 133%. Next, `COc1ccc(N=c2oc3cc(O)ccc3cc2C(=O)NCC2CCCO2)cc1` (stereo unspecified): 126%; `O=c1c2ccccc2sn1-c1nccs1`: 73.6%; `O=C(Nc1ccc(Nc2ccncc2)cc1)c1ccc(Nc2ccnc3ccc([N+](=O)[O-])cc23)cc1`: 105%. On to `COc1ccc(-n2c(N)c(C(=O)NCc3ccco3)c3nc4ccccc4nc32)cc1`, for which the inhibition is 130%. Under `Cc1ccc(CN2C(=O)N/C(=C\c3ccc(-c4ccc(C(=O)O)cc4C)o3)C2=O)cc1` stands 98.2%; under `O=C(N/N=C/c1ccc(-c2ccc(Cl)c(C(=O)O)c2)o1)c1cc2c(ccc3ccccc32)o1`, 70.6%. Next, `CCN(CC)c1ccc2cc(-c3nc(-c4ccc(OC)cc4)cs3)c(=O)oc2c1`: 71.5%. Under `CCOC(=O)c1c(NC(=O)CSc2ncccn2)sc2c1CCN(Cc1ccccc1)C2` stands 160%; under `CN(C)c1ccc(/C=C(\C#N)C(=O)NCc2ccco2)cc1`, 106%. For `COc1cc(C2C=C(c3cccs3)Nc3ncnn32)cc(OC)c1OC` (stereo unspecified), the inhibition is 70.6%. Next, `N#Cc1cc2c(=O)n3ccccc3nc2n(-c2ccc(Cl)cc2)c1=O`: 70.6%. Next, `CCC(CO)[n+]1c(C)cc(/C=C2\Sc3ccccc3N2Cc2ccccc2)cc1C` (stereo unspecified): 134%. Under `CCn1c(=N)c(C(=O)NCc2cccnc2)cc2c(=O)n3cccc(C)c3nc21` stands 72.9%; under `CCCn1nc(C(=O)Oc2ccc3c(C)cc(=O)oc3c2)c2ccccc2c1=O`, 90.9%. For the molecule `CCSc1nc(N2CCOCC2)c2c(c1C#N)CC(C)(C)N(C)C2`, the inhibition was 115%. Under `COC(=O)CSc1nc(N2CCOCC2)c2c(c1C#N)CC(C)(C)N(C)C2` stands 72.9%; under `CC(C)Cn1c(N)c(C(=O)NCC2CCCO2)c2nc3ccccc3nc21` (stereo unspecified), 77.9%. Next, `O=C(O)CCC(=O)c1ccc2ccc3cccc4ccc1c2c34`: 89.3%; `CCCN1CC=C2C(C#N)=C(N)C(C#N)(C#N)C(c3cccc(OC)c3OC)C2C1` (stereo unspecified): 71.5%; `Cc1ccc(-c2nc(N)s[n+]2-c2ccccc2)cc1`: 64%. Take `CCOC(=O)C1=C(C)NC2=C(C(=O)C(C(=O)OCC)C(c3cccc(OC)c3)C2)C1c1ccccn1` (stereo unspecified): the inhibition is 87.8%. Under `COc1ccc(C2C(C(=O)c3cccs3)=C(O)C(=O)N2c2nncs2)cc1` (stereo unspecified) stands 92.2%.

On to `COC(=O)c1c(N)n(-c2ccc(NC(C)=O)cc2)c2nc3ccccc3nc12`, for which the inhibition was determined as 76.9%.
